From the BET-seq Pho4 binding data (Le et al. 2018) come the findings set out here.

This is one part of the list. The energies were worked out here from pooled read counts, against the library average; single values are noisy.

The target in this experiment is T1, Pho4 (S. cerevisiae) (UniProt P07270).
T1 sequence: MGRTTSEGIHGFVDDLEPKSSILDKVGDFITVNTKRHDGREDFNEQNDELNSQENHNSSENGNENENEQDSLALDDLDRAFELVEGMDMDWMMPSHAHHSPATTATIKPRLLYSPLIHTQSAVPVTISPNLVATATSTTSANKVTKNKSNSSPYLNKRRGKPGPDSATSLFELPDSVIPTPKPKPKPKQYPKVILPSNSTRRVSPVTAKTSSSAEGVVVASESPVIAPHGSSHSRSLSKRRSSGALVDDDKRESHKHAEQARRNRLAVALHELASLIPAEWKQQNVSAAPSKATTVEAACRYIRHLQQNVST
Nature of the experiment: relative binding free energy (BET-seq); higher = weaker binding. The conditions noted are these: reference: library average.
As for TCTATCACGTGAATTG, the “relative binding free energy” value is 0.43 kcal/mol. For TTGACCACGTGGTGTT, the “relative binding free energy” value was -0.15 kcal/mol. Consider GTCGGCACGTGGAGGA, for which the “relative binding free energy” value is -0.06 kcal/mol. With AGTATCACGTGAATGG the figure was 0.03 kcal/mol; with TTAGACACGTGTTAGG, 0.06 kcal/mol. For the sequence TACGTCACGTGGAAGG, the “relative binding free energy” value worked out at 0.02 kcal/mol.

With TTCAGCACGTGTGGAA, the “relative binding free energy” value turned out to be 0.01 kcal/mol. Regarding GGTAGCACGTGAGTCG, the “relative binding free energy” value was 0.21 kcal/mol. With ATAGGCACGTGGGGGC the figure was -0.32 kcal/mol; with GTATTCACGTGTGGTT, 0.41 kcal/mol. Regarding CGTACCACGTGGTGGG, the “relative binding free energy” value was -0.22 kcal/mol. Take TATAGCACGTGGGAAT: the “relative binding free energy” value was -0.12 kcal/mol. On to AGAGTCACGTGTGGCT, for which the “relative binding free energy” value came out at 0.1 kcal/mol. Under GATATCACGTGATGTT stands 0.2 kcal/mol.

Turning to TTTTTCACGTGGCTTT, the “relative binding free energy” value was determined as 0.14 kcal/mol. With GTGGGCACGTGGTGGT the figure was -0.02 kcal/mol.

On to ATTGTCACGTGGTGTT, for which the “relative binding free energy” value amounted to 0.03 kcal/mol. Regarding AAGTTCACGTGTTAGC, the “relative binding free energy” value was 0.42 kcal/mol. In the case of GCGTTCACGTGGTTCG, the “relative binding free energy” value worked out at 0.27 kcal/mol. Under GTAATCACGTGTGGGT stands 0.24 kcal/mol. With ATAGACACGTGTAATG the figure was 0.16 kcal/mol; with TTTTCCACGTGATGGT, 0.22 kcal/mol; with GTTTTCACGTGTGATA, 0.3 kcal/mol. Regarding GTCAGCACGTGTCTGG, the “relative binding free energy” value is -0.01 kcal/mol. Take TTATACACGTGTCTTT: the “relative binding free energy” value worked out at 0.06 kcal/mol.

For the sequence CCTTGCACGTGGTGGG, the “relative binding free energy” value was -0.23 kcal/mol. Take AGTCGCACGTGTTTAG: the “relative binding free energy” value came out at 0.07 kcal/mol. As to GGGTGCACGTGAGGGT, the “relative binding free energy” value turned out to be 0.29 kcal/mol.

For the sequence ATGATCACGTGTGGGG, the “relative binding free energy” value was found to be 0.25 kcal/mol. Turning to AATGGCACGTGTTGAT, the “relative binding free energy” value was -0.05 kcal/mol. With TTGTGCACGTGTTTCT, the “relative binding free energy” value was -0.01 kcal/mol.

As for TAGTTCACGTGTCGTA, the “relative binding free energy” value was 0.24 kcal/mol. TTTTGCACGTGGTTAT: the “relative binding free energy” value was -0.04 kcal/mol. Under CTGTACACGTGGTTAG stands -0.11 kcal/mol; under TACAGCACGTGTTTTT, -0.01 kcal/mol. For ATGAGCACGTGCATGG, the “relative binding free energy” value was -0.05 kcal/mol. As for TTCAGCACGTGTTGTG, the “relative binding free energy” value was -0.12 kcal/mol. As for GAATACACGTGGGTTA, the “relative binding free energy” value was -0.06 kcal/mol. With TAAGCCACGTGTTGAT, the “relative binding free energy” value came out at 0.17 kcal/mol.

For GTTTACACGTGGTCCG, the “relative binding free energy” value was 0.11 kcal/mol. Under GGTTGCACGTGAAAGT stands 0.34 kcal/mol; under TTGTACACGTGAAGTA, 0.13 kcal/mol. Regarding GTTAGCACGTGATTAC, the “relative binding free energy” value is 0.23 kcal/mol. Turning to TTAGGCACGTGGTTAA, the “relative binding free energy” value was -0.13 kcal/mol. With TGGCGCACGTGAGATT, the “relative binding free energy” value came to 0.2 kcal/mol. Consider GGAGACACGTGAGGGG, for which the “relative binding free energy” value turned out to be 0.22 kcal/mol. For the sequence TATTGCACGTGGTATA, the “relative binding free energy” value is -0.17 kcal/mol. For GTTATCACGTGGATAT, the “relative binding free energy” value is 0.19 kcal/mol. As for CAGGTCACGTGGGGTG, the “relative binding free energy” value was -0.07 kcal/mol. Take GGGGTCACGTGGTCTT: the “relative binding free energy” value was determined as 0.16 kcal/mol. With TGTGGCACGTGCAATT, the “relative binding free energy” value stood at 0.1 kcal/mol. In the case of TCGGGCACGTGTAAGA, the “relative binding free energy” value came to 0.18 kcal/mol.

With GGAGTCACGTGGCTTG, the “relative binding free energy” value came to 0.13 kcal/mol. As for GGACTCACGTGTTGGT, the “relative binding free energy” value was found to be 0.26 kcal/mol.

As for GTTAGCACGTGCTGTT, the “relative binding free energy” value is -0.08 kcal/mol. In the case of GGCGACACGTGGGAGT, the “relative binding free energy” value was -0.06 kcal/mol. With GAGAGCACGTGGGGAA the figure was -0.17 kcal/mol; with ACTTACACGTGTGTGT, 0.07 kcal/mol; with CTATGCACGTGGAGGG, -0.06 kcal/mol. Consider GACGGCACGTGTGAGG, for which the “relative binding free energy” value stood at 0.12 kcal/mol.

For the sequence GGCAGCACGTGCGGTG, the “relative binding free energy” value was determined as 0.01 kcal/mol. With TTTTTCACGTGAGCGA, the “relative binding free energy” value was determined as 0.52 kcal/mol. For TAGTGCACGTGTTGAG, the “relative binding free energy” value came to 0.12 kcal/mol.

Regarding TAAATCACGTGGAGGT, the “relative binding free energy” value was found to be 0.2 kcal/mol. Under GTGTGCACGTGTACAG stands -0.06 kcal/mol; under TAGGTCACGTGGGACG, 0.06 kcal/mol. CGAGGCACGTGTCTGG: the “relative binding free energy” value was -0.06 kcal/mol. On to CTGTGCACGTGGTAGT, for which the “relative binding free energy” value was -0.1 kcal/mol. With AGGTACACGTGAAATT, the “relative binding free energy” value is 0.18 kcal/mol.

Take TTGGTCACGTGGATCG: the “relative binding free energy” value was determined as 0.08 kcal/mol.

For TTCGACACGTGCAGGG, the “relative binding free energy” value was 0.11 kcal/mol. Take TGGTCCACGTGTTCGT: the “relative binding free energy” value was -0.06 kcal/mol.

Take CATTTCACGTGTTGTC: the “relative binding free energy” value worked out at 0.32 kcal/mol. With TATACCACGTGGTGTA, the “relative binding free energy” value is -0.16 kcal/mol. Turning to GGTGGCACGTGGTTAG, the “relative binding free energy” value is -0.11 kcal/mol. Take TGTTTCACGTGCGACT: the “relative binding free energy” value is 0.46 kcal/mol. With GTTTGCACGTGACGGT the figure was 0.23 kcal/mol; with TTGTGCACGTGGGCTC, -0.14 kcal/mol; with AGGTGCACGTGTGTGC, 0 kcal/mol. In the case of TTATTCACGTGAGCAG, the “relative binding free energy” value was 0.51 kcal/mol. With CTTTTCACGTGAAATT the figure was 0.36 kcal/mol.

For the sequence CGGTTCACGTGGAGTG, the “relative binding free energy” value was determined as 0.32 kcal/mol. As to GATTGCACGTGGGCAG, the “relative binding free energy” value is -0.27 kcal/mol. Consider TCGAACACGTGGGCGG, for which the “relative binding free energy” value was -0.02 kcal/mol. With GGGTCCACGTGTGAGG the figure was 0.17 kcal/mol; with GCGTGCACGTGGTAAG, -0.03 kcal/mol; with ATGAACACGTGGGTGA, -0.18 kcal/mol. GTTTGCACGTGAGTAG: the “relative binding free energy” value came to 0.28 kcal/mol. On to ATTAGCACGTGTTATG, for which the “relative binding free energy” value is -0.01 kcal/mol. For the sequence GCTGCCACGTGGTGTG, the “relative binding free energy” value is -0.16 kcal/mol. For TGGATCACGTGATATA, the “relative binding free energy” value came out at 0.36 kcal/mol. With TTTATCACGTGGCGCA the figure was 0.2 kcal/mol. For TAGGGCACGTGTAGGC, the “relative binding free energy” value is -0.02 kcal/mol. TTACGCACGTGGGGAG: the “relative binding free energy” value was -0.36 kcal/mol.

Turning to TATTTCACGTGTGACG, the “relative binding free energy” value came to 0.3 kcal/mol.

As to GGCCGCACGTGGTGTT, the “relative binding free energy” value was -0.21 kcal/mol. With GGTGACACGTGGGCCT the figure was -0.08 kcal/mol; with TATTTCACGTGTGGCC, 0.24 kcal/mol; with CAGAGCACGTGAGTTT, 0.25 kcal/mol. For the sequence CGTTGCACGTGTCGTG, the “relative binding free energy” value was found to be 0 kcal/mol. As to TAGATCACGTGTTTGG, the “relative binding free energy” value was 0.14 kcal/mol.

In the case of CGGTGCACGTGAGGGT, the “relative binding free energy” value stood at 0.23 kcal/mol. On to GGAGTCACGTGTATTC, for which the “relative binding free energy” value was 0.29 kcal/mol.

As to GTAAACACGTGGGTGT, the “relative binding free energy” value was -0.12 kcal/mol. With GGTGGCACGTGCGTCG, the “relative binding free energy” value is -0.17 kcal/mol. With GCTTTCACGTGGAGGG, the “relative binding free energy” value was 0.27 kcal/mol. Turning to AGGTACACGTGTGCGA, the “relative binding free energy” value is 0.12 kcal/mol. For TTCGTCACGTGGATGA, the “relative binding free energy” value came out at 0.08 kcal/mol. With TATCACACGTGGGGCG, the “relative binding free energy” value is -0.07 kcal/mol. Under AGTTTCACGTGGTTTG stands 0.26 kcal/mol; under ATGGACACGTGGTAGT, 0.11 kcal/mol; under AAGATCACGTGTGTGA, 0.04 kcal/mol. Turning to TGGGACACGTGAGGTA, the “relative binding free energy” value was 0.13 kcal/mol. As to CGCGTCACGTGGGGCT, the “relative binding free energy” value was -0.06 kcal/mol. With AGGAGCACGTGTTTGA the figure was -0.06 kcal/mol; with TGGGGCACGTGTAGTT, 0.05 kcal/mol; with GTTATCACGTGGCTGA, 0.16 kcal/mol. On to GGTTGCACGTGTTCGA, for which the “relative binding free energy” value was determined as 0.06 kcal/mol. Consider GTTGCCACGTGAGAGT, for which the “relative binding free energy” value is 0.01 kcal/mol.

As to CAGGTCACGTGGTTCG, the “relative binding free energy” value is 0.09 kcal/mol. As to ATGTTCACGTGTTCTG, the “relative binding free energy” value worked out at 0.28 kcal/mol. As for GGTGTCACGTGGAAAC, the “relative binding free energy” value came out at 0.31 kcal/mol. Under ATATTCACGTGGGCTT stands 0.08 kcal/mol; under ATTCGCACGTGTTCTG, 0.08 kcal/mol. With GTTGACACGTGATTTA the figure was 0.14 kcal/mol.

For the sequence ATTGACACGTGCTGGT, the “relative binding free energy” value is -0.06 kcal/mol.

For ATGTACACGTGAGCTG, the “relative binding free energy” value is 0.23 kcal/mol. With GTTTTCACGTGGGTAC, the “relative binding free energy” value was determined as 0.35 kcal/mol. For the sequence GCAGGCACGTGGTTAG, the “relative binding free energy” value is -0.27 kcal/mol.

As to AGATTCACGTGGTAGG, the “relative binding free energy” value was 0.24 kcal/mol. Under AGAAGCACGTGGTGTG stands -0.1 kcal/mol.

For GATGACACGTGTGAGA, the “relative binding free energy” value is 0.18 kcal/mol. As to TTCAGCACGTGGTTTA, the “relative binding free energy” value was -0.12 kcal/mol.

CGAGTCACGTGATTAT: the “relative binding free energy” value amounted to 0.29 kcal/mol. As to TCAGGCACGTGAAGGT, the “relative binding free energy” value is 0.17 kcal/mol. Take ATATTCACGTGTGGGG: the “relative binding free energy” value was 0.21 kcal/mol. Under GTTGACACGTGTCGTG stands -0.03 kcal/mol. With TAATTCACGTGTTTGA the figure was 0.13 kcal/mol. Take TGGCGCACGTGTACGG: the “relative binding free energy” value is -0.18 kcal/mol. As to TTATTCACGTGTTTTG, the “relative binding free energy” value was determined as 0.26 kcal/mol. Regarding GCGTGCACGTGGCTTT, the “relative binding free energy” value is -0.03 kcal/mol. TCGGTCACGTGGGTAA: the “relative binding free energy” value amounted to 0.09 kcal/mol. With TGGGACACGTGGTCGG the figure was -0.08 kcal/mol. For the sequence TGGTTCACGTGGATAT, the “relative binding free energy” value stood at 0.16 kcal/mol. Take TTGGTCACGTGGACCG: the “relative binding free energy” value is 0.12 kcal/mol. AGGGCCACGTGTGGGT: the “relative binding free energy” value is 0.04 kcal/mol.
